The list shows a part of the results. Repeats are few or missing, and single values can be far off.
How the values were obtained:
Assay in all cases: cell count relative to DMSO control; melanoma cells; higher = more viable cells
Details in all cases: library dose: standard library concentration; 72 h
SkMel28 = test system: SkMel28
SkMel2 = test system: SkMel2
SkMel30 = test system: SkMel30
SkMel5 = test system: SkMel5
UACC257 = test system: UACC257
UACC62 = test system: UACC62
WM115 = test system: WM115
WM1716 = test system: WM1716
WM3526 = test system: WM3526
WM1745 = test system: WM1745
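Also: cells treated in 1,536-well plates, then fixed and DAPI-stained, with nuclei counted from automated high-throughput microscope images.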

Row | SMILES | cell count (SkMel28) | cell count (SkMel2) | cell count (SkMel30) | cell count (SkMel5) | cell count (UACC257) | cell count (UACC62) | cell count (WM115) | cell count (WM1716) | cell count (WM3526) | cell count (WM1745)
1 | Cc1ccc(Nc2nccc(N(C)c3ccc4c(C)n(C)nc4c3)n2)cc1S(N)(=O)=O [Pazopanib] + CCCCCCCCCCCC1=C(O)C(=O)C=C(O)C1=O [Embelin] (first compound 2 µM, partner dose 6 µM) | 75.9% | 79.4% | 83.1% | 84.2% | 88.6% | 60.2% | 99.2% | 72.6% | 71.2% | –
2 | O=C(/C=C/c1cccnc1)NCCCCC1CCN(C(=O)c2ccccc2)CC1 + O=S(=O)(c1ccccc1)N(CC(F)(F)F)c1ccc(C(O)(C(F)(F)F)C(F)(F)F)cc1 [T0901317] (first compound 0.05 µM, partner dose 7 µM) | 62.8% | 20.7% | 100% | 79.3% | 79.5% | 83.8% | 81.5% | 99.1% | 84% | –
3 | O=C(/C=C/c1cccnc1)NCCCCC1CCN(C(=O)c2ccccc2)CC1 + COc1cc2ncnc(Nc3ccc(Oc4ccccc4)cc3)c2cc1OC [SrcI1] (first compound 0.05 µM, partner dose 10 µM) | 47.5% | 29.3% | 79.5% | 51.5% | 79% | 58.5% | 69.1% | 71.8% | 50% | –
4 | O=C(/C=C/c1cccnc1)NCCCCC1CCN(C(=O)c2ccccc2)CC1 + C=C(c1ccc(C(=O)O)cc1)c1cc2c(cc1C)C(C)(C)CCC2(C)C [Bexarotene] (first compound 0.05 µM, partner dose 10 µM) | 99.9% | 12.8% | 99.4% | 103% | 82.8% | 66.4% | 112% | 84.7% | 104% | 85.5%
5 | CC1(C)CCC(c2ccc(Cl)cc2)=C(CN2CCN(c3ccc(C(=O)NS(=O)(=O)c4ccc(N[C@H](CCN5CCOCC5)CSc5ccccc5)c(S(=O)(=O)C(F)(F)F)c4)cc3)CC2)C1 + COc1cc2ncnc(Nc3ccc(Oc4ccccc4)cc3)c2cc1OC [SrcI1] (first compound 2 µM, partner dose 10 µM) | 52.8% | 79.5% | 67.5% | 69.8% | 23.5% | 47.3% | 43.2% | 57.9% | 53.4% | –
6 | CC1(C)CCC(c2ccc(Cl)cc2)=C(CN2CCN(c3ccc(C(=O)NS(=O)(=O)c4ccc(N[C@H](CCN5CCOCC5)CSc5ccccc5)c(S(=O)(=O)C(F)(F)F)c4)cc3)CC2)C1 + COc1ccc(COc2ccc(Cc3cnc(N)nc3N)cc2OC)cc1 [GW2580] (first compound 2 µM, partner dose 5 µM) | 76% | 79.8% | 56.3% | 93.3% | 40.9% | 73.4% | 76.3% | 61.1% | 84.9% | –
7 | O=C(/C=C/c1cccnc1)NCCCCC1CCN(C(=O)c2ccccc2)CC1 + O=c1cc(-c2cccc3c2Sc2ccccc2S3)oc(N2CCOCC2)c1 [KU55933] (first compound 0.05 µM, partner dose 5 µM) | 57.9% | 25.7% | 106% | 100% | 104% | 88.6% | 103% | 75.5% | 84.2% | –
8 | Cc1ccc(Nc2nccc(N(C)c3ccc4c(C)n(C)nc4c3)n2)cc1S(N)(=O)=O [Pazopanib] + COc1ccc2c(c1)CCC1C2CCC2(C)C(NCCCCCCN3C(=O)C=CC3=O)CCC12 [U73122] (first compound 2 µM, partner dose 2 µM) | 110% | 101% | 95.7% | 82.7% | 86.5% | 73.6% | 115% | 69.7% | 81.6% | –
9 | O=C(/C=C/c1cccnc1)NCCCCC1CCN(C(=O)c2ccccc2)CC1 + COc1ccc(Cl)c(Nc2nc3ccccc3nc2NS(=O)(=O)c2cccc(NC(=O)C(C)(C)N)c2)c1 [XL147] (first compound 0.05 µM, partner dose 4 µM) | 75.5% | 9.82% | 103% | 94.6% | 86.6% | 79.2% | 103% | 89.2% | 111% | 96.7%
10 | Cc1ccc(Nc2nccc(N(C)c3ccc4c(C)n(C)nc4c3)n2)cc1S(N)(=O)=O [Pazopanib] + CCCCCCCCc1ccc(CCC(N)(CO)CO)cc1 [fingolimod] (first compound 2 µM, partner dose 10 µM) | 2.31% | 0.304% | 16.8% | 63.8% | 76.4% | 13.9% | 18.6% | 46.5% | 46.4% | 3.18%
11 | CC1(C)CCC(c2ccc(Cl)cc2)=C(CN2CCN(c3ccc(C(=O)NS(=O)(=O)c4ccc(N[C@H](CCN5CCOCC5)CSc5ccccc5)c(S(=O)(=O)C(F)(F)F)c4)cc3)CC2)C1 + O=S(=O)(c1ccccc1)N(CC(F)(F)F)c1ccc(C(O)(C(F)(F)F)C(F)(F)F)cc1 [T0901317] (first compound 2 µM, partner dose 7 µM) | 74.1% | 74.5% | 55.8% | 78.4% | 25.6% | 71.1% | 79% | 54% | 77.1% | –
12 | CC1(C)CCC(c2ccc(Cl)cc2)=C(CN2CCN(c3ccc(C(=O)NS(=O)(=O)c4ccc(N[C@H](CCN5CCOCC5)CSc5ccccc5)c(S(=O)(=O)C(F)(F)F)c4)cc3)CC2)C1 + Cn1cc(/C=C2\C(=O)Nc3cccnc32)c2ccccc21 [GW441756] (first compound 2 µM, partner dose 2 µM) | 77.6% | 97.4% | 72.5% | 76% | 48.1% | 58.9% | 69% | 73% | 112% | –
13 | Cc1ccc(Nc2nccc(N(C)c3ccc4c(C)n(C)nc4c3)n2)cc1S(N)(=O)=O [Pazopanib] + COc1cc(N2CCC(N3CCN(C)CC3)CC2)ccc1Nc1ncc(Cl)c(Nc2ccccc2S(=O)(=O)C(C)C)n1 [NVP-TAE684] (first compound 2 µM, partner dose 0.4 µM) | 71.4% | 75.5% | 101% | 57.3% | 80.1% | 65.3% | 79.8% | 71.7% | 64.7% | –
14 | O=C(/C=C/c1cccnc1)NCCCCC1CCN(C(=O)c2ccccc2)CC1 + Cn1cc(/C=C2\C(=O)Nc3cccnc32)c2ccccc21 [GW441756] (first compound 0.05 µM, partner dose 2 µM) | 75.6% | 21.5% | 124% | 87.9% | 101% | 67.5% | 105% | 112% | 132% | –
15 | CC1(C)CCC(c2ccc(Cl)cc2)=C(CN2CCN(c3ccc(C(=O)NS(=O)(=O)c4ccc(N[C@H](CCN5CCOCC5)CSc5ccccc5)c(S(=O)(=O)C(F)(F)F)c4)cc3)CC2)C1 + c1cc(-c2cnn3cc(-c4ccc(OCCN5CCCCC5)cc4)cnc23)ccn1 [Dorsomorphin] (first compound 2 µM, partner dose 2 µM) | 88.5% | 83% | 72% | 46% | 20.1% | 69.9% | 55.5% | 56.1% | 84.4% | –
16 | O=C(/C=C/c1cccnc1)NCCCCC1CCN(C(=O)c2ccccc2)CC1 + Nc1nc(F)nc2c1ncn2[C@@H]1O[C@H](CO)[C@@H](O)[C@@H]1O [fludarabine] (first compound 0.05 µM, partner dose 1 µM) | 2.2% | 1.8% | 37.4% | 39.1% | 57.1% | 66.7% | 86.5% | 70% | 23% | 90.6%
17 | CC1(C)CCC(c2ccc(Cl)cc2)=C(CN2CCN(c3ccc(C(=O)NS(=O)(=O)c4ccc(N[C@H](CCN5CCOCC5)CSc5ccccc5)c(S(=O)(=O)C(F)(F)F)c4)cc3)CC2)C1 + COc1cc(N2CCC(N3CCN(C)CC3)CC2)ccc1Nc1ncc(Cl)c(Nc2ccccc2S(=O)(=O)C(C)C)n1 [NVP-TAE684] (first compound 2 µM, partner dose 0.4 µM) | 58.5% | 51.4% | 85.1% | 55.8% | 20.8% | 64.8% | 60.7% | 50.4% | 59.8% | –
18 | Cc1ccc(Nc2nccc(N(C)c3ccc4c(C)n(C)nc4c3)n2)cc1S(N)(=O)=O [Pazopanib] + CCc1ccc(CCOc2ccc(CC3SC(=O)NC3=O)cc2)nc1 [pioglitazone] (first compound 2 µM, partner dose 10 µM) | 66.1% | 112% | 85.6% | 93% | 83.3% | 95.7% | 108% | 77.8% | 87.9% | –
19 | O=C(/C=C/c1cccnc1)NCCCCC1CCN(C(=O)c2ccccc2)CC1 + COC(=O)c1sccc1S(=O)(=O)Nc1ccc(Nc2ccccc2)cc1OC [GSK0660] (first compound 0.05 µM, partner dose 5 µM) | 75.8% | 15.3% | 111% | 101% | 80.1% | 107% | 94.4% | 78.1% | 102% | –
20 | Cc1ccc(Nc2nccc(N(C)c3ccc4c(C)n(C)nc4c3)n2)cc1S(N)(=O)=O [Pazopanib] + COc1cc2ncnc(Nc3ccc(Oc4ccccc4)cc3)c2cc1OC [SrcI1] (first compound 2 µM, partner dose 10 µM) | 52.2% | 83.8% | 78.3% | 54.7% | 80.6% | 44.5% | 75.2% | 62.5% | 55.9% | –
21 | O=C(/C=C/c1cccnc1)NCCCCC1CCN(C(=O)c2ccccc2)CC1 + Oc1cc(-c2nc(-c3ccccc3)[nH]c2-c2ccncc2)ccc1Cl [L779450] (first compound 0.05 µM, partner dose 1 µM) | 60.2% | 25.4% | 89% | 65.5% | 94.3% | 54.5% | 66.2% | 67.2% | 56.4% | –
22 | CC1(C)CCC(c2ccc(Cl)cc2)=C(CN2CCN(c3ccc(C(=O)NS(=O)(=O)c4ccc(N[C@H](CCN5CCOCC5)CSc5ccccc5)c(S(=O)(=O)C(F)(F)F)c4)cc3)CC2)C1 + CC(C)CCN1c2nc(Nc3cc(F)c(O)c(F)c3)ncc2N(C)C(=O)C1C [BID1870] (first compound 2 µM, partner dose 1 µM) | 58.7% | 56.8% | 37% | 73.2% | 29.6% | 42.4% | 72.2% | 69.5% | 47.8% | –

Source: the supplement of paper PMC4604168 (melanoma cell lines)
